Measurements published in the antibiotic and cytotoxicity screens of Wong et al. (2023).
This is one part of the list.

How the values were obtained:
HSkMC = human skeletal muscle cells; assay: cytotoxicity call (relative viability < 0.9); conditions: 10 µM
HepG2 = assay: cytotoxicity call (relative viability < 0.9); conditions: 10 µM
S. aureus RN4220 = assay: growth inhibition call (relative growth <= 0.2); conditions: 50 µM

CO[C@@H]1CN(C)C(=O)c2ccc(NC(=O)C3CC3)cc2OC[C@H](C)N(C(=O)Cc2ccccn2)C[C@H]1C
inactive: cytotoxicity call (HSkMC) | cytotoxicity call (HepG2) | growth inhibition call (S. aureus RN4220)

COc1ccc(S(=O)(=O)Nc2ccc3c(c2)C(=O)N([C@@H](C)CO)C[C@@H](C)[C@H](CN(C)CC2CC2)O3)cc1
inactive: cytotoxicity call (HSkMC) | cytotoxicity call (HepG2) | growth inhibition call (S. aureus RN4220)

Cn1nnnc1-c1ccco1
inactive: cytotoxicity call (HSkMC) | cytotoxicity call (HepG2) | growth inhibition call (S. aureus RN4220)

C[C@H](CO)N1C[C@H](C)[C@@H](CN(C)S(=O)(=O)c2ccccc2C#N)OCc2cn(nn2)CCCC1=O
inactive: cytotoxicity call (HSkMC) | cytotoxicity call (HepG2) | growth inhibition call (S. aureus RN4220)

CCCCCCCC/C=C\CCCCCCCC(N)=O
inactive: cytotoxicity call (HSkMC) | cytotoxicity call (HepG2) | growth inhibition call (S. aureus RN4220)

CN(C)CCN1C(=O)CO[C@H]2CN(C(=O)NCc3cccnc3)C[C@@H]21
inactive: cytotoxicity call (HSkMC) | cytotoxicity call (HepG2) | growth inhibition call (S. aureus RN4220)

C[C@H](CO)N1C[C@H](C)[C@H](CN(C)C(=O)C2CCCCC2)Oc2cc(Br)ccc2S1(=O)=O
inactive: cytotoxicity call (HSkMC) | cytotoxicity call (HepG2) | growth inhibition call (S. aureus RN4220)

CN(C)S(=O)(=O)n1nnc2ccccc21
inactive: cytotoxicity call (HSkMC) | cytotoxicity call (HepG2) | growth inhibition call (S. aureus RN4220)

O=C(NCc1nc2ccccc2[nH]1)C1=C[C@@H](c2ccc(C(F)(F)F)cc2)C[C@@H](OCc2ccc(CO)cc2)O1
inactive: cytotoxicity call (HSkMC) | cytotoxicity call (HepG2) | growth inhibition call (S. aureus RN4220)

COc1ccc(S(=O)(=O)N(C)C[C@@H]2Oc3ccc(NC(=O)C4CC4)cc3CC(=O)N([C@@H](C)CO)C[C@@H]2C)cc1
inactive: cytotoxicity call (HSkMC) | cytotoxicity call (HepG2) | growth inhibition call (S. aureus RN4220)

C[C@@H]1CN([C@@H](C)CO)C(=O)c2cc(NC(=O)CCCN(C)C)ccc2O[C@@H]1CN(C)S(=O)(=O)c1ccc(Cl)cc1
inactive: cytotoxicity call (HSkMC) | cytotoxicity call (HepG2) | growth inhibition call (S. aureus RN4220)
